89 compounds from PMC4336329 (PLoS ONE, 2015) can be followed below.

Out of some 310,000 compounds screened, about 2,200 (0.71%) showed an effect of 50% or more. The effect is printed as a negative number. The list shows a part of the results.

Chain of human ether-à-go-go-related gene (hERG) potassium channel (Q12809 whole entry, looked up): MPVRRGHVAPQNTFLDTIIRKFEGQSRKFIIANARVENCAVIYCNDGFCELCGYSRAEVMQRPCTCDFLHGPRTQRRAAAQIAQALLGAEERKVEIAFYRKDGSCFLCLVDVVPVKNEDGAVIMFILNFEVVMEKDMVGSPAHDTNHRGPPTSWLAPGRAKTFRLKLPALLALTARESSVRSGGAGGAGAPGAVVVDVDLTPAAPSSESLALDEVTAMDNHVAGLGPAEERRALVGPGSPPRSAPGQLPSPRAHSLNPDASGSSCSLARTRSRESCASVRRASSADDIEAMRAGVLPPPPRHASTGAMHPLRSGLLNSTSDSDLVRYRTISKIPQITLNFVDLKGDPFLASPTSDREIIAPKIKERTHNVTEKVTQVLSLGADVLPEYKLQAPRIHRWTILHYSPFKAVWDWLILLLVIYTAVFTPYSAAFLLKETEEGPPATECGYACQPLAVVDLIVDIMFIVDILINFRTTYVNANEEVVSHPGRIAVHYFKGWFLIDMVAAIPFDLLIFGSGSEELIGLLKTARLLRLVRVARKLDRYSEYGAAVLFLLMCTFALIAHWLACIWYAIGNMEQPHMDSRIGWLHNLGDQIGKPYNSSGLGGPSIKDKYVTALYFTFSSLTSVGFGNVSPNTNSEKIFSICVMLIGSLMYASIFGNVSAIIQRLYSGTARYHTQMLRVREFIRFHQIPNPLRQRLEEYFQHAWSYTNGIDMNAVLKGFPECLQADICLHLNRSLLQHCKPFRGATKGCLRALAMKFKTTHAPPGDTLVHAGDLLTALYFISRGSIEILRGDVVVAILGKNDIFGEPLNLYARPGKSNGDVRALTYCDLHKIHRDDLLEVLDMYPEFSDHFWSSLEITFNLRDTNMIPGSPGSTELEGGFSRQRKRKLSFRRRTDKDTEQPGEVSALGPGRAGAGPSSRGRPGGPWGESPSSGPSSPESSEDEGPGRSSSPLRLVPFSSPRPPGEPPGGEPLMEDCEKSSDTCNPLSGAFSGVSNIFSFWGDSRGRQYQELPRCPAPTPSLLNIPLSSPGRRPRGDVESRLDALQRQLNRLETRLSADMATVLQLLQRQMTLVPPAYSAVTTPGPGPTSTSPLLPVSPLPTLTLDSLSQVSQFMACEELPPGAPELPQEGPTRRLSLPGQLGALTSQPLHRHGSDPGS

This experiment has as its target human ether-à-go-go-related gene (hERG) potassium channel (human, UniProt Q12809). The experiment in a line: primary screen, population patch clamp on CHO cells stably expressing hERG.
For `CCOC(=O)C1(CCc2ccccc2)CCN(Cc2ccc3c(c2)OCCO3)CC1`, the “hERG current change (%, negative = inhibition) at 1uM” value was -91.4%.
In the case of `O=C(Nc1ccc(F)c([N+](=O)[O-])c1)C1CCCO1` (centres unmarked), the “hERG current change (%, negative = inhibition) at 1uM” value stood at 14.2%.
As to `O=C(Nc1ccccn1)Nc1ccccc1[N+](=O)[O-]`, the “hERG current change (%, negative = inhibition) at 1uM” value is on record as 9.93%.
With `O=C(CCCCCCCC(=O)NCC1CCCO1)NCC1CCCO1` (centres unmarked) the figure was 5.35%.
As to `Cc1c(Cl)c([N+](=O)[O-])nn1Cc1ccc(C(=O)N/N=C\c2cc(Cl)ccc2O)o1`, the “hERG current change (%, negative = inhibition) at 1uM” value is 7.63%.
Turning to `Cc1cccc(NC(=S)NNC(=O)c2ccc3c(c2)OCO3)c1`, the “hERG current change (%, negative = inhibition) at 1uM” value is 19%.
As for `COc1ccc(-c2csc(N3CCN(C(=O)c4ccco4)CC3)n2)cc1`, the “hERG current change (%, negative = inhibition) at 1uM” value is recorded as 0.773%.
As for `CC(=O)Nc1ccc(N=Cc2ccc[nH]2)cc1`, the figure is 0.222%; as for `C=CCC1=C/C(=C\c2c(N)n3nc(CC(=O)N4CCOCC4)sc3nc2=O)C=C(OC)C1=O`, 15%.
In the case of `Cc1ccc(-c2cc(C(=O)Nc3ccccc3C(N)=O)c3ccccc3n2)o1`, the “hERG current change (%, negative = inhibition) at 1uM” value turned out to be 19.9%.
With `CCOc1ccc(OCc2ccc(C(=O)N3N=C(C(F)F)CC3(O)C(F)F)o2)cc1` (centres unmarked), the “hERG current change (%, negative = inhibition) at 1uM” value is 12.5%.
On to `CN(C)c1ccc(S(=O)(=O)N(C)C)cc1[N+](=O)[O-]`, for which the “hERG current change (%, negative = inhibition) at 1uM” value is on record as 10.7%.
As for `CCOC(=O)N1CCN(CC(=O)Nc2cc(OCC)ccc2OCC)CC1.Cl`, the “hERG current change (%, negative = inhibition) at 1uM” value was -31.1%.
Take `COc1ccccc1CN(C)C(=O)CN1CCN(C(=O)c2cccs2)CC1`: the “hERG current change (%, negative = inhibition) at 1uM” value amounted to 7.03%.
As for `CC(CNC(=O)c1ccc(Br)o1)NC(=O)c1ccc(Br)o1` (centres unmarked), the figure is 8.69%; as for `O=C(c1cn(-c2ccccc2)nc1-c1cccc([N+](=O)[O-])c1)N1CCCCC1`, 8.86%.
As for `N#Cc1sc2nccc(Nc3ccccc3)c2c1N`, the figure is 9.26%; as for `Cc1cc(C)cc(NS(=O)(=O)c2coc(C(N)=O)c2)c1`, 5.89%.
On to `Cc1ccc(/C=C(\C#N)C(=O)NC(C)c2ccccc2)o1` (centres unmarked), for which the “hERG current change (%, negative = inhibition) at 1uM” value is 19.8%.
As to `CCOC(=O)C1=C(N)N2C(=O)CSC2=C(C(=O)OC)C1`, the “hERG current change (%, negative = inhibition) at 1uM” value was 12.5%.
For `CN1CCN(c2ccc(S(=O)(=O)N3CCCCC3)cc2NC(=O)COc2cccc(Cl)c2)CC1`, the “hERG current change (%, negative = inhibition) at 1uM” value is -1.99%.
As for `COc1cc(Cl)ccc1OCc1cc(C(=O)NC(C)Cc2cccnc2)no1` (centres unmarked), the figure is -2.27%; as for `COc1ccc(C)cc1NC(=O)CCNC(=O)c1ccco1`, 8.32%; as for `COC(=O)[C@H](Cc1ccccc1)NC(=O)O[C@@H]1C(=O)c2cc(OC)ccc2O[C@H]1c1ccc(OC)c(Br)c1`, 15.1%.
In the case of `Cc1ccc(N2CN=c3s/c(=C\c4ccccn4)c(=O)n3C2)cc1`, the “hERG current change (%, negative = inhibition) at 1uM” value is 9.54%.
With `COc1ccc(CN(C(=O)CO/N=C/c2ccccc2)c2ccccc2C(=O)O)cc1` the figure was 11.1%.
`C(/C=C/c1ccco1)=N/N1CCN(c2ccccc2)CC1`: the “hERG current change (%, negative = inhibition) at 1uM” value is 10.8%.
With `O=C1C(Cc2cccc([N+](=O)[O-])c2)S/C(=N/N=C/c2ccco2)N1c1ccccc1` (centres unmarked) the figure was 6.64%; with `COc1ccc(NC(=O)C2CCC(=O)N2S(=O)(=O)c2ccc(C)cc2)c(OC)c1` (centres unmarked), 1.85%; with `O=c1c2c(-c3ccc([N+](=O)[O-])cc3)csc2nc2n1CCCCC2`, -9.37%.
Turning to `Cc1nc2sc(C(c3cccc(F)c3)N3CCCCC3)c(O)n2n1` (centres unmarked), the “hERG current change (%, negative = inhibition) at 1uM” value stood at 7.22%.
Consider `COc1ccccc1NC(=O)C/C(C)=N/NC(=O)C12CC3CC(CC(C3)C1)C2`, for which the “hERG current change (%, negative = inhibition) at 1uM” value came out at 9.83%.
For the compound `Nc1c(C(=O)[O-])sc2nc3c(cc12)CCCC3`, the “hERG current change (%, negative = inhibition) at 1uM” value is on record as 13.6%.
For `OC(COc1ccc(Br)cc1)CN1CCN(c2ccccc2)CC1` (centres unmarked), the “hERG current change (%, negative = inhibition) at 1uM” value is listed as 12%.
As for `O=C(NCc1ccccc1)c1ccc2c(=O)n(CCCN3CCCC3=O)c(=S)[nH]c2c1`, the “hERG current change (%, negative = inhibition) at 1uM” value is on record as 10.4%.
`C=CCN1C(=O)/C(=c2\sc3nc(=O)c(Cc4ccccc4Cl)nn3c2=O)c2ccccc21`: the “hERG current change (%, negative = inhibition) at 1uM” value is 14.7%.
In the case of `O=C(N/C(=C\c1ccccc1)C(=O)N1CCCCC1)c1ccco1`, the “hERG current change (%, negative = inhibition) at 1uM” value was determined as 14%.
As to `COc1ccc(/C=C/C(=O)OCC(=O)N2CCCCCC2)c(OC)c1`, the “hERG current change (%, negative = inhibition) at 1uM” value is given as -0.988%.
On to `Cc1cccc(C)c1OCCSc1n[nH]c(N)n1`, for which the “hERG current change (%, negative = inhibition) at 1uM” value is 12.1%.
As for `O=C(O)C1=C[C@H](c2cccs2)C[C@H](OCc2ccc(CO)cc2)O1`, the figure is 9.03%.
For the compound `COc1ccc(CCNCC(=O)Nc2ccc(OC(F)F)cc2)cc1`, the “hERG current change (%, negative = inhibition) at 1uM” value is -37.4%.
Turning to `CC(Oc1ccc(Br)cc1)C(=O)N1CCN(c2ccccn2)CC1` (centres unmarked), the “hERG current change (%, negative = inhibition) at 1uM” value is -0.257%.
For the compound `Cc1ccc(OCC(=O)N2CCN(C(=O)c3ccc([N+](=O)[O-])cc3)CC2)cc1`, the “hERG current change (%, negative = inhibition) at 1uM” value is listed as -19.5%.
On to `Cc1ccc(SCc2cc(=O)[nH]c(N3CCN(C)CC3)n2)cc1`, for which the “hERG current change (%, negative = inhibition) at 1uM” value is -3.41%.
In the case of `CCS(=O)(=O)Nc1cccc(C2=NN(S(=O)(=O)CC)C(c3ccccc3)C2)c1` (centres unmarked), the “hERG current change (%, negative = inhibition) at 1uM” value stood at 1.13%.
As to `COc1cc(NC(=O)CSc2nnc(C)s2)cc(OC)c1OC`, the “hERG current change (%, negative = inhibition) at 1uM” value is reported as 7.36%.
For the compound `O=S1(=O)CCO[C@H]2Cc3ccccc3[C@H]2N1Cc1cccc(Cl)c1`, the “hERG current change (%, negative = inhibition) at 1uM” value was -0.829%.
Take `COc1ccc(OC)c2[nH]c(=O)c(CCNC(=O)c3ccc(S(=O)(=O)N4CCCCC4)cc3)cc12`: the “hERG current change (%, negative = inhibition) at 1uM” value worked out at 5.9%.
As for `O=C(CCC(=O)N1CCc2ccccc21)Nc1ccccc1`, the figure is 3.36%; as for `COc1cccc(NC(=O)c2sc3nc4n(c(=O)c3c2C)CCC4)c1`, 13%.
Regarding `CS(=O)(=O)N(CC(=O)NCc1ccc2c(c1)OCO2)Cc1ccccc1`, the “hERG current change (%, negative = inhibition) at 1uM” value is listed as -1.52%.
Take `CSc1ncccc1-c1nc2ccccc2[nH]1`: the “hERG current change (%, negative = inhibition) at 1uM” value came to 14.3%.
`CC(=O)c1ccc(S(=O)(=O)N(C)CC(=O)NCc2ccco2)cc1`: the “hERG current change (%, negative = inhibition) at 1uM” value came out at 13.4%.
Consider `O=C(NC1CCCCNC1=O)c1ccccc1` (centres unmarked), for which the “hERG current change (%, negative = inhibition) at 1uM” value amounted to 10.8%.
`COc1ccccc1-c1nc2ccccc2c(=O)n1O`: the “hERG current change (%, negative = inhibition) at 1uM” value is 16.2%.
Turning to `Cc1cc(C)c(C#N)c(SCC(=O)Nc2ccc3c(c2)OCO3)n1`, the “hERG current change (%, negative = inhibition) at 1uM” value amounted to 12.9%.
With `Cc1cccc(OCCOc2ccccc2C=C(C#N)C#N)c1`, the “hERG current change (%, negative = inhibition) at 1uM” value stood at 9.22%.
On to `CSCC[C@H](NC(=O)[C@@H]1CSC2c3ccccc3C(=O)N21)C(=O)N1CCC[C@H]1CO` (some centres unmarked), for which the “hERG current change (%, negative = inhibition) at 1uM” value was found to be 7.38%.
Turning to `N#Cc1c(-c2cccc([N+](=O)[O-])c2)nc2n(c1=O)CCS2`, the “hERG current change (%, negative = inhibition) at 1uM” value came to 14.6%.
Regarding `CCCCCn1ccc(=N)cc1.I`, the “hERG current change (%, negative = inhibition) at 1uM” value stood at 9.03%.
Regarding `C#CC[N+](CC)(CC)CC#Cc1ccccc1.[Br-]`, the “hERG current change (%, negative = inhibition) at 1uM” value is 13.1%.
Consider `C=CCn1c(=N)n(CC(=O)c2ccc(Br)cc2)c2ccccc21`, for which the “hERG current change (%, negative = inhibition) at 1uM” value was found to be 0.719%.
For `CC(=O)c1cccc(NC(=S)NC(=O)c2cccc(C)c2)c1`, the “hERG current change (%, negative = inhibition) at 1uM” value is 17.2%.
Turning to `CCOc1ccc(C(CC(=O)O)NC(=O)C(c2ccccc2)c2ccccc2)cc1OC` (centres unmarked), the “hERG current change (%, negative = inhibition) at 1uM” value stood at 7.46%.
With `Cc1cc(C)cc(C(=O)NCC(=O)OCC(=O)NCC(F)(F)F)c1` the figure was 14.5%; with `COc1ccc(NC(=O)CN(C)C(=O)c2cccc(-n3cccc3)c2)cc1`, 5.91%; with `N#Cc1nc(-c2ccccc2)oc1NCC1CCCO1` (centres unmarked), 11.1%.
`CCCc1cc(=O)[nH]c(SCc2csc(-c3ccccc3)n2)n1`: the “hERG current change (%, negative = inhibition) at 1uM” value was 10.8%.
As to `O=C(NCc1ccco1)c1cc(S(=O)(=O)N2CCCc3ccccc32)ccc1Cl`, the “hERG current change (%, negative = inhibition) at 1uM” value is listed as -9.08%.
As for `Cc1c(Cl)cccc1NC(=O)CCC(=O)NNC(=O)c1ccccc1Cl`, the figure is -6.66%.
As to `Cc1ccc(-c2cc(-c3n[nH]c(=S)n3C)c3ccccc3n2)cc1`, the “hERG current change (%, negative = inhibition) at 1uM” value is 27.9%.
As to `CC1(C)COCN1C(=O)c1ccc(C#N)cc1`, the “hERG current change (%, negative = inhibition) at 1uM” value was found to be 10.2%.
With `O=C(Nc1ccc2[nH]c(=O)[nH]c2c1)c1ccc(Cl)c(Cl)c1` the figure was 15.9%; with `Cc1ccc2nc(N/C(=N/S(=O)(=O)c3cccs3)c3ccccc3Cl)sc2c1`, -0.0403%; with `Cc1ccc(Sc2nc3ccc(C)cn3c(=O)c2/C=N/O)cc1`, 14.1%.
Regarding `O[C@@H]1CN(C2CCCCC2)CC[C@H]1N1CCN(CCc2ccccc2)CC1`, the “hERG current change (%, negative = inhibition) at 1uM” value is reported as 17.6%.
For `COc1ccc([N+](=O)[O-])cc1NC(=O)C1CCCO1` (centres unmarked), the “hERG current change (%, negative = inhibition) at 1uM” value worked out at 13.4%.
As for `COc1cc2c(cc1OC)/C(=C/C(=O)c1cccc([N+](=O)[O-])c1)NCC2`, the “hERG current change (%, negative = inhibition) at 1uM” value is given as 10.6%.
Consider `O=C(COC(=O)CNC(=O)C1CCCCC1)Nc1cc(C(F)(F)F)ccc1Cl`, for which the “hERG current change (%, negative = inhibition) at 1uM” value was found to be 12.1%.
With `COc1ccc(NCC(O)Cn2c(C)c(C)c3ccccc32)cc1` (centres unmarked), the “hERG current change (%, negative = inhibition) at 1uM” value came to 4%.
In the case of `CCOC(=O)N1CCC(n2c(=S)[nH]c3cc(OC)c(OC)cc3c2=O)CC1`, the “hERG current change (%, negative = inhibition) at 1uM” value is -0.548%.
Turning to `Cc1cc(NC(=O)c2ccccc2C)n(-c2cccc(F)c2)n1`, the “hERG current change (%, negative = inhibition) at 1uM” value came out at 10.1%.
With `COc1cc(SC)ccc1C(=O)NCCOc1ccccc1Cl` the figure was 5.01%; with `COc1ccc(C2N3CC4(C)CN2CC(C)(C3)C4O)cc1OC` (centres unmarked), 13.1%; with `Cc1cccc(-c2nc(C#N)c(NCc3ccco3)o2)c1`, 6.72%.
As to `O=C(CSc1nnc(-c2ccc(Cl)cc2)n1CC1CCCO1)NC1CCS(=O)(=O)C1` (centres unmarked), the “hERG current change (%, negative = inhibition) at 1uM” value came out at 7.69%.
As for `Cc1ccc(CC2C(=O)N(CC(=O)O)C(=O)C2C)cc1` (centres unmarked), the figure is -1.57%; as for `O=C(COC(=O)c1sc2ccccc2c1Cl)NCC1CCCCC1`, 3.47%; as for `COc1ccc(-c2noc(Cc3ccc(Cl)cc3)n2)cc1OC`, 5.89%.
